This is one part of the list. Repeats are few or missing, and single values can be far off.
System: COLO792
Experiment: cell count relative to DMSO control; melanoma cells; higher = more viable cells
Settings: library dose: standard library concentration; 72 h
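Note: cells treated in 1,536-well plates, then fixed and DAPI-stained, with nuclei counted from automated high-throughput microscope images.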

SMILES	cell count [%]
Cc1cc(Nc2cc(N3CCN(C)CC3)nc(Sc3ccc(NC(=O)C4CC4)cc3)n2)n[nH]1 [Tozasertib] + O=C(O)c1ccc(-c2c[nH]c3ncc(-c4ccccc4)cc23)cc1C1CCCC1 [GSK650394] (first compound 0.03 µM, partner dose 0.8 µM)	97.1
Cc1cc(Nc2cc(N3CCN(C)CC3)nc(Sc3ccc(NC(=O)C4CC4)cc3)n2)n[nH]1 [Tozasertib] + Nc1cccc2c1CN(C1CCC(=O)NC1=O)C2=O [lenalidomide] (first compound 0.03 µM, partner dose 5 µM)	91.5
N#CC[C@H](C1CCCC1)n1cc(-c2ncnc3[nH]ccc23)cn1 [ruxolitinib] + CCN(CC)CCCCNc1ncc2cc(-c3cc(OC)cc(OC)c3)c(NC(=O)NC(C)(C)C)nc2n1 [PD173074] (first compound 5 µM, partner dose 0.5 µM)	136
N#CC[C@H](C1CCCC1)n1cc(-c2ncnc3[nH]ccc23)cn1 [ruxolitinib] + O=C(CCCCCCC(=O)Nc1ccccc1)NO [vorinostat] (first compound 5 µM, partner dose 0.4 µM)	71.5
CC[C@]1(O)C[C@H]2CN(CCc3c([nH]c4ccccc34)[C@@](C(=O)OC)(c3cc4c(cc3OC)N(C=O)[C@H]3[C@@](O)(C(=O)OC)[C@H](OC(C)=O)[C@]5(CC)C=CCN6CC[C@]43[C@@H]65)C2)C1 [vincristine] + COC(=O)c1sccc1S(=O)(=O)Nc1ccc(Nc2ccccc2)cc1OC [GSK0660] (first compound 0.0005 µM, partner dose 5 µM)	92.8
CC[C@]1(O)C[C@H]2CN(CCc3c([nH]c4ccccc34)[C@@](C(=O)OC)(c3cc4c(cc3OC)N(C=O)[C@H]3[C@@](O)(C(=O)OC)[C@H](OC(C)=O)[C@]5(CC)C=CCN6CC[C@]43[C@@H]65)C2)C1 [vincristine] + O=C(/C=C/c1cccnc1)NCCCCC1CCN(C(=O)c2ccccc2)CC1 [FK866] (first compound 0.0005 µM, partner dose 0.05 µM)	42.7
Cc1cc(Nc2cc(N3CCN(C)CC3)nc(Sc3ccc(NC(=O)C4CC4)cc3)n2)n[nH]1 [Tozasertib] + CC(C)(C)c1cnc(CSc2cnc(NC(=O)C3CCNCC3)s2)o1 [SNS-032] (first compound 0.03 µM, partner dose 0.05 µM)	81.1
Cc1cc(Nc2cc(N3CCN(C)CC3)nc(Sc3ccc(NC(=O)C4CC4)cc3)n2)n[nH]1 [Tozasertib] + c1cc(-c2cnn3cc(-c4ccc(OCCN5CCCCC5)cc4)cnc23)ccn1 [Dorsomorphin] (first compound 0.03 µM, partner dose 2 µM)	71.9
N#CC[C@H](C1CCCC1)n1cc(-c2ncnc3[nH]ccc23)cn1 [ruxolitinib] + Nc1ccn([C@@H]2O[C@H](CO)[C@@H](O)C2(F)F)c(=O)n1 [gemcitabine] (first compound 5 µM, partner dose 0.002 µM)	80.5
Cc1cc(Nc2cc(N3CCN(C)CC3)nc(Sc3ccc(NC(=O)C4CC4)cc3)n2)n[nH]1 [Tozasertib] + CCN(CC)CCNC(=O)c1c(C)[nH]c(/C=C2\C(=O)Nc3ccc(F)cc32)c1C [sunitinib] (first compound 0.03 µM, partner dose 2 µM)	46.6
Cc1cc(Nc2cc(N3CCN(C)CC3)nc(Sc3ccc(NC(=O)C4CC4)cc3)n2)n[nH]1 [Tozasertib] + Nc1ncn([C@H]2C[C@H](O)[C@@H](CO)O2)c(=O)n1 [decitabine] (first compound 0.03 µM, partner dose 0.5 µM)	51
N#CC[C@H](C1CCCC1)n1cc(-c2ncnc3[nH]ccc23)cn1 [ruxolitinib] + Cc1cc([N+](=O)[O-])ccc1NS(=O)(=O)c1cc(Cl)ccc1Cl [FH535] (first compound 5 µM, partner dose 5 µM)	80.5
CC[C@]1(O)C[C@H]2CN(CCc3c([nH]c4ccccc34)[C@@](C(=O)OC)(c3cc4c(cc3OC)N(C=O)[C@H]3[C@@](O)(C(=O)OC)[C@H](OC(C)=O)[C@]5(CC)C=CCN6CC[C@]43[C@@H]65)C2)C1 [vincristine] + Nc1nc(F)nc2c1ncn2[C@@H]1O[C@H](CO)[C@@H](O)[C@@H]1O [fludarabine] (first compound 0.0005 µM, partner dose 1 µM)	70.9
